Source: PubChem BioAssay AID2528 (National Center for Advancing Translational Sciences (NCATS), 2010)
In all, about 350,000 compounds went through this assay and about 700 (0.2%) were called active. The shares of active, inactive and inconclusive entries below differ from those in the screen. Calls follow the shape of the dose curve; as a rule, active = well fitted inhibition curve with a large enough effect; inconclusive = small, poorly fitted or top-dose-only effect; inactive = flat fitted curve, though single readings scatter. Potencies of inconclusive entries are left out as doubtful fits. Where a structure was tested more than once in an assay, its records may differ in their call.

The compounds below were run against RecQ-like DNA helicase BLM (Homo sapiens) (UniProt P54132) (assay: qHTS Assay for Inhibitors of Bloom's syndrome helicase (BLM)). Settings: recombinant BLM DNA unwinding, fluorescence dequenching; series mostly up to 56.1 µM.
Text: Survival of cells and the faithful propagation of the genome depend on elaborate mechanisms of detecting and repairing DNA damage. Treatment of advanced cancer relies on radiation therapy or chemotherapy, which kill cancer cells by causing extensive DNA damage. It is often found, that cancer cells develop resistance to therapy through enhanced activity of DNA repair functions; this has led to an increased interest in developing drugs that interfere with DNA repair, which could sensitize cancer cells to conventional therapy.
This validation qHTS assay pertains to human BLM, which is important in resolving abnormal DNA structures formed during replication or homologous recombination. Shutting down the expression of BLM leads to chromosomal instability and higher radiation sensitivity in cultured cells.
The validation assay was a fluorescence quenching based kinetic qHTS for BLM Helicase DNA unwinding. The activity was measured as ATP-dependent separation of a 20-bp DNA duplex extended by 30-nt single-stranded tails (forked duplex). The forked DNA substrate was tagged with rhodamine fluorophore (carboxytetramethyl rhodamine, TAMRA) and BHQ-2 (Black Hole Quencher 2) dark quencher. Strand separation results in an increase in the fluorescence of TAMRA (excitation 525 nm, emission 598 nm). This substrate construct operates in a red-shifted region where very few compound library members have been noted to fluoresce (PubChem AIDs 593 and 594). An additional feature of the assay is the inclusion of 2.5 ug/ml poly (dIdC), to reduce interference by compounds such as DNA intercalators, a major source of false inhibitors.
Ian Hickson, University of Oxford
Opher Gileadi, Structural Genomics Consortium, University of Oxford
Screening Center PI: Austin, C.P.
Screening Center: NIH Chemical Genomics Center [NCGC]
Three uL of reaction buffer (25 mM Tris-HCl (pH 8.0), 5 mM NaCl, 2 mM MgCl2, 1mM DTT, 0.01% Tween- 20, and 2.5 ug/ml poly(dI-dC), including enzyme (50 nM BLM), were dispensed into a 1536-well Greiner black assay plate via solenoid-valve based nanoliter dispensers. Compounds (23 nl each in columns 5-48) and control (23 nl each in column 2 as dose-response) were transferred via a Kalypsys pintool equipped with a 1536-pin array. The plates were incubated for 15 min at room temperature, and then 1 ul of substrates (200 nM DNA and 2 mM ATP, final concentrations) was added to start the reaction. The plate was transferred into a ViewLux high-throughput CCD imager where the reaction progress was measured in a discontinuous kinetic mode (two reads spaced 2 hours apart, with intermediate room temperature incubation of the covered assay plate) by using standard red-fluorescence optics (excitation filter 525 nm, emission filter 598 nm). Enzyme-free and vehicle (DMSO) controls were included for signal normalization.
Also: nearly all actives have a fitted effect of over 35% in size.
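For activity change, negative = inhibition in this document: plate controls were vehicle for no effect and no enzyme for full effect.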
Potency is read from the fitted curve at half-maximal effect; tags tell the direction and shape of the fitted curve.

Chain of UniProt P54132 (P54132 whole entry, looked up): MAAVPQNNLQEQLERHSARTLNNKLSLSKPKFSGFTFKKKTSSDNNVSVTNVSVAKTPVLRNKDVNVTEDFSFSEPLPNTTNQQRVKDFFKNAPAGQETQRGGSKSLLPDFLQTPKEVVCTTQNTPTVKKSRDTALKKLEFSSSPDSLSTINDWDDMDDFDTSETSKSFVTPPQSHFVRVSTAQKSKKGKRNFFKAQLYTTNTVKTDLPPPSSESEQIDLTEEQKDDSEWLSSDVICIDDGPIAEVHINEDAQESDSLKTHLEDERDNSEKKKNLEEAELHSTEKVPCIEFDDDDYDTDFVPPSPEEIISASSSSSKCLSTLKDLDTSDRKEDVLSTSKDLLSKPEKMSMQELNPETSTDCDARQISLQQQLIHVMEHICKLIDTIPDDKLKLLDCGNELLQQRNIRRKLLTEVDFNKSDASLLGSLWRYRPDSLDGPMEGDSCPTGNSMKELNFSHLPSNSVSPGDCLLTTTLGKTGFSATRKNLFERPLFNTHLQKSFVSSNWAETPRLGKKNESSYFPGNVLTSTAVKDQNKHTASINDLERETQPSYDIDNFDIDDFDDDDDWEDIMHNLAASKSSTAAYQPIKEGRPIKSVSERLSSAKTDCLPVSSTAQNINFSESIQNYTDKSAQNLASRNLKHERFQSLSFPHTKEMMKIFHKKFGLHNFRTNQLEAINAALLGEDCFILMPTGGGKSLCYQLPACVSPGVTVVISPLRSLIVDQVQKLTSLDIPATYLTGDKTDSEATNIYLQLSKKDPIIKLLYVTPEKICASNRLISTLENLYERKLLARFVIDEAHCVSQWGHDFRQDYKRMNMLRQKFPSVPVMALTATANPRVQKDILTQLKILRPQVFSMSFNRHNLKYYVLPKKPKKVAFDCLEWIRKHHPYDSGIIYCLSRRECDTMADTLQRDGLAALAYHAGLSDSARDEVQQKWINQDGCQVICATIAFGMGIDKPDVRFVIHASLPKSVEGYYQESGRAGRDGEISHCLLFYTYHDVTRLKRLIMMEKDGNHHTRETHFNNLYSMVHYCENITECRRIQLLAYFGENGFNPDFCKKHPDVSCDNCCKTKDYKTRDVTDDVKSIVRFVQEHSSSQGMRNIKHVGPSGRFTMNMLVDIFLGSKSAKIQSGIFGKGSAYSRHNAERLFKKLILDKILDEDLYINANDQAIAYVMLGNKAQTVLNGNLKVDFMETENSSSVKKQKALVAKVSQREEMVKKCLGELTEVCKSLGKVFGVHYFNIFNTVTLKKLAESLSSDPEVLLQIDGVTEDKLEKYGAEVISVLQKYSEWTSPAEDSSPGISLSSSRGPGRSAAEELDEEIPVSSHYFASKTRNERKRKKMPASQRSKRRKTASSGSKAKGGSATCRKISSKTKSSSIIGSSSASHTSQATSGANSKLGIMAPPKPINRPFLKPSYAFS

Row | SMILES | Potency | activity change, negative = inhibition
1 | Cc1ccccc1C(=O)NNC(=S)Nc1cccc(C(F)(F)F)c1 | inactive | 
2 | CCOc1ccccc1Nc1nnc(SCC(=O)Nc2ccc3[nH]c(=O)[nH]c3c2)s1 | inactive | 
3 | COc1ccc(C(=O)c2coc3ccc(OC(C)=O)cc23)cc1 | inactive | 
4 | CS(=O)(=O)c1ccc2c(c1)SC1=NC(=O)/C(=C/c3ccco3)C(=N)N12 | inconclusive [inhibitor, single point] | 
5 | COC(=O)C1=C(C(=O)OC)[C@@H]2N(Cc3ccccc3)c3ccccc3[C@@]23C[C@@H](C(=O)OC)N(S(=O)(=O)c2ccc([N+](=O)[O-])cc2)C3=N1 |  | inactive: 0.235% [at 12.4 µM]
6 | O=[N+]([O-])c1ccc(Nc2nc(NC3CCCCC3)nc(N3CCCC3)n2)cc1 | active: 28.2 µM | 
7 | N#C/C(=C/c1ccc(-c2cc(C(=O)O)cc(C(=O)O)c2)o1)c1nc2ccccc2s1 | inactive | 
8 | O=c1c(-c2cc(F)cc(F)c2)nc2cnc(N3CCNCC3)nc2n1Cc1cccs1 | inconclusive [inhibitor, single point] | 
9 | O=C(/C=C/c1ccco1)NCC1OCCc2ccccc21 (stereo unspecified) | inconclusive [inhibitor, single point] | 
10 | CCCc1nc2sc3c(SCC(=O)NCc4ccco4)ncnc3c2c2c1CCC2 | inconclusive [inhibitor, single point] | 
11 | O=C(CCCN1C(=O)/C(=C/c2ccco2)SC1=S)Nc1cccc(C(=O)O)c1 | inconclusive [inhibitor, single point] | 
12 | COc1cc(NCc2ccc3nc(N)nc(N)c3c2C)cc(OC)c1OC | active: 17.8 µM | 
13 | N#CC1=C(N)OC2=C(CN(Cc3ccccc3)C/C2=C\c2cccnc2)C1c1cccnc1 (stereo unspecified) | inactive | 
14 | Cc1c(Cl)cccc1N1CC(C)(C)C1=O | inactive | 
15 | O=C(CN1C(=O)S/C(=C\c2ccc(-c3cc(C(=O)O)ccc3Cl)o2)C1=O)Nc1ccc2c(c1)OCO2 | active: 10 µM | 
16 | Cc1ccn2cc(CNS(=O)(=O)c3cccs3)nc2c1 | inactive | 
17 | COc1cccc(C(C[N+](=O)[O-])c2c(C)[nH]n(-c3ccccc3)c2=O)c1 (stereo unspecified) | inconclusive [inhibitor, single point] | 
18 | O=C(NCc1ccccc1)c1ccc2nc(-c3ccco3)c(-c3ccco3)nc2c1 | active: 14.1 µM | 
19 | N#Cc1c(Cl)nsc1NCCN1CCOCC1 | inactive | 
20 | O=C(c1ccc(=O)oc1)N1CCCc2ccccc21 | inconclusive [inhibitor, single point] | 
21 | CCOC(=O)N/N=C1/C[C@@H](O)[C@@H](O)[C@@H]2[C@@H]3C(=O)N(Cc4ccccc4)C(=O)[C@H]3CC[C@H]12 |  | inactive: 0.108% [at 12.4 µM]
